According to the BET-seq Pho4 binding data (Le et al. 2018):
This is one part of the list. The energies were worked out here from pooled read counts, against the library average; single values are noisy.

These sequences were tested against T1, Pho4 (S. cerevisiae) (UniProt P07270) (assay: relative binding free energy (BET-seq); higher = weaker binding). Conditions: reference: library average.
T1 sequence: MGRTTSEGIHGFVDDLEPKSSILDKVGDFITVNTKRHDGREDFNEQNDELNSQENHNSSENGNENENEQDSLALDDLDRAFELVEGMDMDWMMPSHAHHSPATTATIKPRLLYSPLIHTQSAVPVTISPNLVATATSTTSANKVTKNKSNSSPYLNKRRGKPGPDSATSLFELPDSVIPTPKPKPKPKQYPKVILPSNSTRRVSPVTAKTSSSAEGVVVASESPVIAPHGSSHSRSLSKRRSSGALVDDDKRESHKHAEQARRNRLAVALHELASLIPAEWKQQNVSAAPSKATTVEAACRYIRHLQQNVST

Sequence | relative binding free energy
ATAGGCACGTGTGCTG | -0.14 kcal/mol
TTCAGCACGTGATTGG | 0.04 kcal/mol
CTGGGCACGTGGATAG | -0.11 kcal/mol
TAGCGCACGTGACGGG | 0.05 kcal/mol
AATAGCACGTGTGTGG | -0.1 kcal/mol
GTGGTCACGTGGAGCC | 0.26 kcal/mol
AAATGCACGTGGTTGA | -0.12 kcal/mol
TTGATCACGTGGGGGT | 0.01 kcal/mol
AGGATCACGTGTGTAG | 0.2 kcal/mol
GTTCTCACGTGGAAGG | 0.38 kcal/mol
GGGCTCACGTGTCATG | 0.26 kcal/mol
GAGGTCACGTGGCTTA | 0.16 kcal/mol
TACGACACGTGGGTGG | -0.22 kcal/mol
GGACGCACGTGCGGTG | -0.18 kcal/mol
TGTATCACGTGCATTT | 0.19 kcal/mol
TGCGTCACGTGGTTTA | -0.08 kcal/mol
CGGTTCACGTGGAAGT | 0.28 kcal/mol
TCTGACACGTGCGGGG | -0.13 kcal/mol
AGGTGCACGTGGAAAT | 0.09 kcal/mol
ATGCACACGTGGGTGT | -0.06 kcal/mol
GGGCTCACGTGAAGTT | 0.53 kcal/mol

Sequence | relative binding free energy
GTATACACGTGGGTAG | -0.06 kcal/mol
CGGTGCACGTGGTTAG | -0.11 kcal/mol
TTGGGCACGTGGATTT | 0.09 kcal/mol
AGGTACACGTGTCTGT | -0.1 kcal/mol
TGACGCACGTGTTAGG | -0.23 kcal/mol
AATTTCACGTGGAGGG | 0.2 kcal/mol
TCAGGCACGTGTGTTA | -0.1 kcal/mol
CGGGACACGTGTTGGC | 0 kcal/mol
AGGGGCACGTGTTCTA | 0 kcal/mol
CGGAGCACGTGGTTAT | -0.12 kcal/mol
CATTTCACGTGGTGCG | 0.28 kcal/mol
CGTTGCACGTGTCGAG | 0.05 kcal/mol
CTGTGCACGTGATTAG | 0.09 kcal/mol
AGCTTCACGTGCTTGG | 0.38 kcal/mol
AACTGCACGTGTTAGG | 0.06 kcal/mol
TGTAACACGTGGGTTC | -0.09 kcal/mol
AGAAGCACGTGGCTGT | -0.12 kcal/mol
GGATACACGTGTGGTA | 0.13 kcal/mol
GAGTGCACGTGAGGCT | 0.26 kcal/mol
TTGCACACGTGAGGGA | 0.25 kcal/mol
TTCTTCACGTGTTGGT | 0.32 kcal/mol

Sequence | relative binding free energy
CGAGTCACGTGTTATT | 0.13 kcal/mol
TGGGGCACGTGCTTTC | -0.09 kcal/mol
TTAAGCACGTGTTTAT | -0.17 kcal/mol
GGGGTCACGTGAAGGT | 0.38 kcal/mol
CTTAGCACGTGTAAGG | -0.01 kcal/mol
TTTTCCACGTGGTATG | 0.04 kcal/mol
GATAACACGTGTTTAG | 0.03 kcal/mol
GGGTTCACGTGACTGA | 0.31 kcal/mol
AGGAACACGTGAGAGG | 0.23 kcal/mol
TAAGCCACGTGTGTGT | -0.04 kcal/mol
CGTAGCACGTGGCGTT | -0.22 kcal/mol
TGAGTCACGTGGCGAA | 0.04 kcal/mol
ATTTTCACGTGTCTAT | 0.36 kcal/mol
ATGGACACGTGGAAGT | 0.05 kcal/mol
CAGAGCACGTGGTGGG | -0.24 kcal/mol
TAGGTCACGTGAGGAT | 0.34 kcal/mol
CGGGTCACGTGGGAAA | -0.06 kcal/mol
TATCTCACGTGGGGTA | -0.04 kcal/mol
GGGAACACGTGGGCTT | -0.1 kcal/mol
TGGGACACGTGGAAAA | 0.22 kcal/mol
TCTTGCACGTGAGGAT | 0.34 kcal/mol
